The supplement of paper PMC3334620
In all, about 33,000 sequences were measured (“E-score (-0.5 to 0.5)”: median about -0.012, highest 2% from about 0.29 on). The list shows a part of the results.

Each sequence was assayed against T1, Ybr033w (UniProt P38073) (assay: PBM E-score (8-mer binding enrichment) (E-score (-0.5 to 0.5)); higher = stronger / more preferred TF binding; most listed sequences are background and not binding sites). Conditions: protein concentration: 200 nM; construct: GST-full length.
T1 sequence: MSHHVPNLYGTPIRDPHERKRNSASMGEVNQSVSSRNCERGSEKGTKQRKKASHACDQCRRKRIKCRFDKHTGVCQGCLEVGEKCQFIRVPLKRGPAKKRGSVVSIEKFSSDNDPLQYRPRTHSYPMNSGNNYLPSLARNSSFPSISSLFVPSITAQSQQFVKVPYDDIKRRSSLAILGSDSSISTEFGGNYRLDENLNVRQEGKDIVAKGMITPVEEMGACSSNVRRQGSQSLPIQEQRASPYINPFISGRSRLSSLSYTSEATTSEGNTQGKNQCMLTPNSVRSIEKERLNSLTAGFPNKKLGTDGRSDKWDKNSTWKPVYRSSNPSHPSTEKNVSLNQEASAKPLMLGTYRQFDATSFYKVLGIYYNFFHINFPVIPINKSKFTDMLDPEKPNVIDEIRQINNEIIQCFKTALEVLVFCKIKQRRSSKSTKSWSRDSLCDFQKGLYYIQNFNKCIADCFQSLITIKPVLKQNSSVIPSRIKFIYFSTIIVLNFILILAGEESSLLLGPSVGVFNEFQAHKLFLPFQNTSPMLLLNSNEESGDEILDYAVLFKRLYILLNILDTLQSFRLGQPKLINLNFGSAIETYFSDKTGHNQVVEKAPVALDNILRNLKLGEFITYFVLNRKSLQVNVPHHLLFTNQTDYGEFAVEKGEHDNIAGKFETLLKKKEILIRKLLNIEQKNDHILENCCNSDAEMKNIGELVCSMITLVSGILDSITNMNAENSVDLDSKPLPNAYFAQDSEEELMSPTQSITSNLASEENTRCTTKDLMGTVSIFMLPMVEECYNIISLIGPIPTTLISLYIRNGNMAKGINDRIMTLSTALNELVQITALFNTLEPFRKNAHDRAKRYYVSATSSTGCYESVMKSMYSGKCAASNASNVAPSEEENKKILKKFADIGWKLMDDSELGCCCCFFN
How it was run: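 Yeast transcription factors carrying a GST tag, as full-length proteins or DNA-binding domains, were produced by PURExpress in vitro transcription/translation. About 100-200 nM protein was applied to universal all-10-mer Agilent arrays, double-stranded by primer extension on fresh or once-stripped slides. Bound protein was detected with fluorescent anti-GST, and scans were normalised with masliner. The Universal PBM Analysis Suite gave each ungapped eight-base word, pooled with its reverse complement, an E-score, a modified Wilcoxon-Mann-Whitney statistic.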

Point of comparison: AATATATA, “PBM E-score” value 0.277. Against it:
- AAATAGTG — higher, 0.292
- AACTCTCA — lower, 0.121
- CTCCTGGC — lower, 0.0146
- AGTAAGAT — lower, 0.138
- GACTGGAA — lower, 0.0267
- CAGTGGGA — lower, -0.0737
- CATCAAAC — lower, 0.131
- GGGTTGGA — lower, -0.0783
- ACAGACCT — lower, 0.00939
- GATCTACA — lower, 0.0898
- CAAAGGTC — lower, -0.191
- AAAATTCA — higher, 0.359
- ACGGTTGA — lower, 0.0715
- AGTACCCG — lower, -0.00154
- CCAGTCGA — lower, -0.153
- AATCGGAT — lower, 0.103
- AGTCTTCG — lower, -0.0758
- GGGAACGA — lower, -0.0809
- CCCTGTCA — lower, -0.253
- AATGCAAT — lower, 0.0527
- CGAACCAG — lower, -0.0159
- GGTTGTTA — lower, 0.0806
- TCTACCAA — lower, 0.156
- ACCCTGGA — lower, -0.243
- AGGGCAGA — lower, -0.196
- ATCGAGCG — lower, -0.089
- CATTGCGC — lower, -0.0267
- AATTCCCT — lower, -0.00587
- GGCACCAC — lower, -0.264
- TAAGTATA — lower, 0.273
- GCGAGTAA — lower, 0.115
- ATCACCGA — lower, 0.0578
- TCCCCAGA — lower, -0.202
- ATAGACCA — lower, 0.0473
- CACTAGTC — lower, -0.0769
- TCAGAACA — lower, 0.0743
- AAGGAAGG — lower, -0.0051
- GCTGTCAA — lower, -0.0307
- GTGCACTA — lower, -0.0587
- CGGTAAGA — lower, -0.0702
- AAGTGAGT — lower, -0.0751
- ACCAGTGC — lower, -0.266
- CCCACGGG — lower, -0.331
- AACTGTGC — lower, 0.00985
- CAAGCTCC — lower, -0.251
- ACGCCCAA — lower, -0.0629
- CGGCTGGA — lower, -0.0587
- AGTAATAC — lower, 0.222
- GGCGCAAC — lower, -0.0758
- AGTGAATA — lower, 0.123
- ACCTCTAG — lower, -0.16
- AAAGTAAC — lower, 0.23
- CGACAGTA — lower, -0.149
- AGGCGCCC — lower, -0.246
- ATATTGCC — lower, 0.0911
- AACACACC — lower, 0.197
- AGTACATC — lower, 0.109
- ACAAAGTA — higher, 0.3
- GTATACCA — lower, -0.139
- AAACACTA — lower, 0.193
- AAAAGGGA — lower, -0.138
- CGGCTAAA — lower, 0.0957
- GACGCGTC — lower, -0.185
- CCTAACGA — lower, -0.0133
- AACATGCG — lower, 0.0191
- CTCCCCGC — lower, -0.105
- AGGAAGTA — lower, 0.165
- AAAAAGAT — lower, 0.219
- AGGATGCG — lower, -0.0573
- GTTCCGTA — lower, 0.0963
- ACTAGAAG — lower, 0.0113
- ATGGCACC — lower, -0.286
- CGCGTTGC — lower, -0.0205
- CTTGACCA — lower, -0.0112
- AGTTTTAC — lower, 0.171
- CGGGTGCC — lower, -0.151
- GGGGGTCA — lower, -0.399
- AGAATTCG — lower, 0.103
- TGTTTGAA — lower, 0.208
- ACGTGGTG — lower, -0.185
- CAAGTTCC — lower, 0.00505
- AGATAGAG — lower, 0.114
- GAACCAGA — lower, -0.162
- GGCCCCGA — lower, -0.256
- ACTGTAAC — lower, 0.0471
- CAGTTGAA — lower, 0.00266
- ACGCATCA — lower, 0.106
- CGGTCAAG — lower, -0.13
- AAGTAGCG — lower, -0.142
- GCGTACCC — lower, -0.144
- ACCTTTAT — lower, 0.0832
- AGGAGACA — lower, -0.0884
- CTGGGTTC — lower, -0.0107
- GTAAGAGA — lower, -0.1
- CAATTCGC — lower, -0.0297
- GGCGGAGA — lower, -0.149
- GCATCGGC — lower, -0.179
- GTAGGTTA — lower, 0.0742
- GTCTAAGA — lower, 0.00167
- CTCTATTC — lower, 0.0334
- GTTTTACA — lower, 0.097
- GTAATGAC — lower, 0.124
- ATCCACGC — lower, -0.0875
- CACTGCGA — lower, -0.0164
- ACGTGCTA — lower, -0.0824
- CTTCTCAA — lower, 0.0494
- CGTAGAGA — lower, -0.0357
- CTCGCCGC — lower, -0.113
- AACCCGAG — lower, -0.0949
- GGTCCCTA — lower, -0.266
- CGATATAC — lower, 0.0716
- CTGTCGTA — lower, 0.0281
- GCCCTCAA — lower, -0.0838
- ACCGGAGA — lower, 0.112
- CCGAAGAC — lower, 0.00094
- CGCGTTGA — lower, -0.173
- ATCCAGGC — lower, -0.15
- CTCTAGCC — lower, -0.174
- GGAAGCCC — lower, -0.0887
- ATGATCAG — lower, 0.0939
- CAGTAGTA — lower, 0.0054
- TCGCATCA — lower, 0.0873
- GAGTATCA — lower, 0.0233
- ATGTGAAA — lower, 0.168
- ACCACCAA — lower, 0.0783
- ACAATTCT — lower, 0.234
- GCTGTAGA — lower, 0.0906
- AAGTGCTC — lower, -0.137
- CTCAGTGA — lower, -0.056
- AACGCAGT — lower, -0.216
- ATAGCCGA — lower, -0.0166
- TCGTCCCA — lower, 0.0631
- CTAACAGC — lower, 0.0372
- CAGCCCTA — lower, -0.142
- ATTTGTAA — lower, 0.266
- CATAGACC — lower, -0.0475
- ATGCTGTA — lower, 0.0893
- GAGTATCC — lower, -0.0164
- GGGTTCAC — lower, -0.03
- GGGATCTA — lower, -0.0846
- ATGGTTGG — lower, -0.00724
- AGTAATGG — lower, 0.127
- ATTTCGTG — lower, 0.207
- AGGACCCG — lower, -0.151
- GAACCTTA — lower, 0.235
- CGCCAACA — lower, 0.0341
- CTTCTACA — lower, 0.0183
- GCAGGGAA — lower, 0.0667
- CTTGTAAA — lower, 0.14
- AGCTTCCT — lower, 0.0496
- AATCGGAA — lower, 0.238
- AAAACCGT — lower, 0.0113
- GGGGAGGA — lower, -0.205
- AAATAGAC — lower, 0.101
- AGAGGTTG — lower, -0.103
- GTACCATA — lower, 0.00958
- CGTACGTC — lower, -0.339
- AGTTCGCG — lower, -0.0796
- ATAAAGCG — lower, 0.11
- GATGAGAA — lower, 0.0192
- CCGTCCGC — lower, -0.366
- CAGGGTGC — lower, -0.316
- AAGCAACA — lower, 0.117
- AACAGAGG — lower, -0.113
- ACTCACAC — lower, -0.1
- GTCCAAAC — lower, -0.142
- GATGGTCC — lower, -0.299
- ACGCAATA — lower, 0.177
- GACGTCCA — lower, -0.0351
- TATGTTGA — lower, 0.191
- CCAGGACA — lower, -0.0752
- ACACTTAC — lower, 0.14
- AGTCAAGG — lower, -0.0815
- GCTCGAAC — lower, 0.0518
- GCGAGGAA — lower, 0.125
- GGCTCCAC — lower, -0.267
- CTAGAACC — lower, -0.072
- ATCCGCAT — lower, 0.188
- CGATCTCA — lower, 0.00902
- AAACTTGT — lower, 0.232
- GGGCCGAA — lower, -0.212
- CGGTTAGA — lower, -0.12
- CCCCGAGG — lower, -0.201
- ACGTTCTG — lower, 0.0106
- ACATTGCA — lower, 0.108
- AACGCCCG — lower, -0.124
- CATGAAGC — lower, -0.0855
- GTGGCTTA — lower, -0.226
- CGGTAGGC — lower, -0.155
- CTTCCAAC — lower, 0.109
- GAGGCTTA — lower, -0.113
- CGCAGTCC — lower, -0.126
- CGTAGCAA — lower, -0.0234
- AGTGTACA — lower, 0.074
- AGGGGAGA — lower, -0.277
- TTTTAAAA — lower, 0.073
- TCTCGGCA — lower, -0.181
- CCCCTTAA — lower, -0.15
- ACACATAA — lower, 0.251
- GCACGCAC — lower, -0.253
- TCACGCGA — lower, 0.0143
- AACGGGAG — lower, 0.0655
- AAGCTGCT — lower, 0.0726
- TAGACGGA — lower, 0.121
- GCGGGACC — lower, -0.17
- GAGCTTTA — lower, -0.111
- ACCTCACT — lower, -0.0376
- CCTCGAGA — lower, -0.183
- ACACGTAG — lower, -0.257
- CCCGACGA — lower, 0.0436
- CCTAGTAG — lower, -0.0358
- ATTGATAA — lower, 0.222
- CCTGGTAA — lower, -0.219
- CAGATGGG — lower, -0.0813
- ACCATCGT — lower, -0.0633
- GTCCCGGA — lower, -0.115
- ACCGAATA — lower, 0.0542
- CAAGACGG — lower, -0.267
